Laboratory results: the supplement of paper PMC12645437, “Orthogonal IMiD-Degron Pairs Induce Selective Protein Degradation in Cells” (ACS Chemical Biology, 2025)
This is one part of the list.

Molecular target: no compound (DMSO)
Assay: log2 fold change of degron read counts, EGFP-low vs EGFP+ sorted cells; higher = lower degron-EGFP level without compound (poor expression or instability)
Conditions: compound: DMSO control; 18 h
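Note: jurkat cells carrying a lentiviral library of mutant zinc finger degrons fused to EGFP plus mCherry, mCherry+ cells FACS sorted, degron abundance counted by next-generation sequencing.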

Question: For FACPICGRTFTQKGNLLRHIKL, which “log2 fold change of degron read counts” value is on record?
Answer: The value was -0.362.

Question: Which “log2 fold change of degron read counts” value does the source give for FKCPQCGAEFTQKGNLLRHIKL here?
Answer: Its value is -1.66.

Question: How did the “log2 fold change of degron read counts” value turn out when FGCEICGAEFTQKGNLLRHIKL was run?
Answer: The value was -2.45.

Question: How did the “log2 fold change of degron read counts” value turn out when FVCDQCGAMFTQKGNLLRHIKL was run?
Answer: Its value is -1.55.

Question: With FTCEQCGAWFTQKGNLLRHIKL as the sequence, how does the “log2 fold change of degron read counts” value read?
Answer: Its value is -0.82.

Question: Which “log2 fold change of degron read counts” value does the source give for LSCNQCGFCCTQKGNLLRHIKL here?
Answer: Its value is 0.847.

Question: Which “log2 fold change of degron read counts” value does the source give for FMCPICGHLFTQKGNLLRHIKL here?
Answer: The value was -0.0434.

Question: FMCNQCGRKFTQKGNLLRHIKL was tested. Which “log2 fold change of degron read counts” value did it give?
Answer: The value was -1.11.

Question: With LFCEICGFHCTQKGNLLRHIKL as the sequence, how does the “log2 fold change of degron read counts” value read?
Answer: Its value is 0.619.

Question: How did the “log2 fold change of degron read counts” value turn out when FHCNICGAYFTQKGNLLRHIKL was run?
Answer: Its value is 0.351.

Question: FTCDQCGAVFTQKGNLLRHIKL was tested. Which “log2 fold change of degron read counts” value did it give?
Answer: Its value is -1.04.

Question: With FHCEICGHRFTQKGNLLRHIKL as the sequence, how does the “log2 fold change of degron read counts” value read?
Answer: The value was -0.745.

Question: Which “log2 fold change of degron read counts” value does the source give for FCCDICGASFTQKGNLLRHIKL here?
Answer: Its value is -1.77.

Question: How did the “log2 fold change of degron read counts” value turn out when FVCPICGAIFTQKGNLLRHIKL was run?
Answer: Its value is 0.713.

Question: For FNCNICGAYFTQKGNLLRHIKL, which “log2 fold change of degron read counts” value is on record?
Answer: The value was 0.856.

Question: With FVCEICGANFTQKGNLLRHIKL as the sequence, how does the “log2 fold change of degron read counts” value read?
Answer: The value was -1.92.

Question: Which “log2 fold change of degron read counts” value does the source give for FCCDVCGAHFTQKGNLLRHIKL here?
Answer: Its value is -1.94.

Question: With FDCPVCGAPFTQKGNLLRHIKL as the sequence, how does the “log2 fold change of degron read counts” value read?
Answer: Its value is -0.588.

Question: For LACPICGFWCTQKGNLLRHIKL, which “log2 fold change of degron read counts” value is on record?
Answer: Its value is 1.55.

Question: How did the “log2 fold change of degron read counts” value turn out when FECNQCGHRFTQKGNLLRHIKL was run?
Answer: Its value is -0.949.

Question: Which “log2 fold change of degron read counts” value does the source give for FCCNQCGAIFTQKGNLLRHIKL here?
Answer: Its value is 0.0266.

Question: Which “log2 fold change of degron read counts” value does the source give for LCCNQCGFCCTQKGNLLRHIKL here?
Answer: Its value is 0.302.

Question: How did the “log2 fold change of degron read counts” value turn out when FTCEICGHIFTQKGNLLRHIKL was run?
Answer: The value was -1.45.

Question: How did the “log2 fold change of degron read counts” value turn out when FVCEVCGAMFTQKGNLLRHIKL was run?
Answer: The value was -0.809.

Question: Which “log2 fold change of degron read counts” value does the source give for FICEICGASFTQKGNLLRHIKL here?
Answer: Its value is -2.18.

Question: For FFCPICGRPFTQKGNLLRHIKL, which “log2 fold change of degron read counts” value is on record?
Answer: Its value is 0.0529.

Question: How did the “log2 fold change of degron read counts” value turn out when FACPICGHRFTQKGNLLRHIKL was run?
Answer: The value was -0.49.

Question: How did the “log2 fold change of degron read counts” value turn out when FICDQCGAWFTQKGNLLRHIKL was run?
Answer: Its value is -0.945.

Question: With FQCDQCGADFTQKGNLLRHIKL as the sequence, how does the “log2 fold change of degron read counts” value read?
Answer: The value was -2.71.

Question: For LVCEICGFHCTQKGNLLRHIKL, which “log2 fold change of degron read counts” value is on record?
Answer: Its value is -0.453.

Question: For FLCDQCGACFTQKGNLLRHIKL, which “log2 fold change of degron read counts” value is on record?
Answer: The value was -1.17.

Question: With FACPICGRQFTQKGNLLRHIKL as the sequence, how does the “log2 fold change of degron read counts” value read?
Answer: Its value is -0.159.
